The whole screen tested about 310,000 compounds, of which about 2,200 (0.71%) showed an effect of 50% or more. The effect is printed as a negative number. The list shows a part of the results.

This assay deals with human ether-à-go-go-related gene (hERG) potassium channel (human, UniProt Q12809). The assay is described as follows: primary screen, population patch clamp on CHO cells stably expressing hERG.
Sequence of human ether-à-go-go-related gene (hERG) potassium channel (Q12809 whole entry, looked up): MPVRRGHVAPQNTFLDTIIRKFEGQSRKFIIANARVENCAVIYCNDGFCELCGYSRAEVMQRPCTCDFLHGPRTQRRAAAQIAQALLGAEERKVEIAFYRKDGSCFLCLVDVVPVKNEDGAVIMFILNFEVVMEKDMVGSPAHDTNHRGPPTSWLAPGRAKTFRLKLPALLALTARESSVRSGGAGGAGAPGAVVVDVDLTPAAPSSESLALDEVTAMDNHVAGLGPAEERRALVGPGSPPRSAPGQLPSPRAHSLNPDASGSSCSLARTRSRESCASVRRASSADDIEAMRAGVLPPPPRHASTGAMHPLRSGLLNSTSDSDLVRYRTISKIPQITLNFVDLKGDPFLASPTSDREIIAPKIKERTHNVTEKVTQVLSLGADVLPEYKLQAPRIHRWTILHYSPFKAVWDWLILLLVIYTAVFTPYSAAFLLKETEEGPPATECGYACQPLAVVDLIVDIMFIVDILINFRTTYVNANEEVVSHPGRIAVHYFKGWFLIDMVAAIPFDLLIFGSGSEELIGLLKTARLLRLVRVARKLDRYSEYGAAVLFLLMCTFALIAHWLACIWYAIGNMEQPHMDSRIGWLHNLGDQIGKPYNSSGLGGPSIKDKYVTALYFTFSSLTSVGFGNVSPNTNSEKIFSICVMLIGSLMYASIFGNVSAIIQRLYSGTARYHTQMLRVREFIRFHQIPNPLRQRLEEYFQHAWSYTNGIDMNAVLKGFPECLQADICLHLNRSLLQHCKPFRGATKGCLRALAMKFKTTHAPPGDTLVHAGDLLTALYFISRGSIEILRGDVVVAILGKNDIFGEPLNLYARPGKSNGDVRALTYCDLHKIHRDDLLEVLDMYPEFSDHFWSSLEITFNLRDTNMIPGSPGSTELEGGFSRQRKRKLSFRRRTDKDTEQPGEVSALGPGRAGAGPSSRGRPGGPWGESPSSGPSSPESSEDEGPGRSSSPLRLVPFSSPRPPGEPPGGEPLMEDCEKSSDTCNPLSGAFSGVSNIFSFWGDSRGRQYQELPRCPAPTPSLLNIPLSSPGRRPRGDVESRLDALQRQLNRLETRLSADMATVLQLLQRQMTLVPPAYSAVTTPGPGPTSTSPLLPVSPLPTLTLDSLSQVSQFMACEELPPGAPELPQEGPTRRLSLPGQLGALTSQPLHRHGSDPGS
With `CCOC(=O)CN1C=C(c2ccc3ccccc3n2)C(C[N+](=O)[O-])c2ccccc21` (centres unmarked), the “hERG current change (%, negative = inhibition) at 1uM” value stood at 9.39%.

`C/C(=N/NC(=O)c1ccc2c(c1)OCO2)c1cccc(NC(=O)C(C)(C)C)c1`: the “hERG current change (%, negative = inhibition) at 1uM” value is 9.89%. Turning to `CCC(CC)C(=O)Nc1cc([N+](=O)[O-])ccc1Cl`, the “hERG current change (%, negative = inhibition) at 1uM” value is -5.45%. To `NC(=O)CC(NC(=O)Cc1ccc(Br)cc1)c1ccc(NCCc2ccc(F)cc2)c([N+](=O)[O-])c1` (centres unmarked) belongs 7.47%. The result for `COc1cc(CNc2ncn[nH]2)ccc1OCc1cccc(C)c1` reads -0.15%; that for `O=C(Nc1ccccc1)C1=C[C@@H](c2ccc(C(F)(F)F)cc2)C[C@@H](OCc2ccc(CO)cc2)O1`, 13.3%. To `O=C(O)CCCC(=O)Nc1ccccc1C(=O)O` belongs -0.879%; to `CCOc1cc(-c2nc3cc(C)ccn3c2NCC2CCCO2)ccc1O` (centres unmarked), -47.3%. As to `O=C(NCc1ccccc1)C(c1ccccc1F)N(CC1CCCO1)C(=O)c1ccccn1` (centres unmarked), the “hERG current change (%, negative = inhibition) at 1uM” value turned out to be 12.1%. The result for `COc1ccc(O)c(/C=N/NC(=O)CCC(=O)Nc2cccc(C)c2)c1` reads 8.42%. Turning to `Cc1ccc(NC(=O)COc2cccc3ccc(C)nc23)c(Br)c1`, the “hERG current change (%, negative = inhibition) at 1uM” value worked out at 11.4%. The result for `Nc1[nH]n2c(=O)c3c(nc2c1N=Nc1ccccc1)CCCC3` reads -3.94%. `CC(=O)c1sc2nsc(SCCN3CCOCC3)c2c1N`: the “hERG current change (%, negative = inhibition) at 1uM” value amounted to 11.3%. Consider `O=C(N/N=C/c1ccc(O)cc1)c1[nH]c2ccc(Br)cc2c1-c1ccccc1`, for which the “hERG current change (%, negative = inhibition) at 1uM” value was 19.6%.

Take `CC(C)[C@H](NS(=O)(=O)c1ccc(Cl)cc1)C(=O)OCC(=O)NCCN1C(=O)CSC1=O`: the “hERG current change (%, negative = inhibition) at 1uM” value turned out to be 11.7%. To `COc1ccc(N=c2oc3ccccc3cc2C(=O)Nc2ccccn2)cc1OC` belongs 18.6%; to `CC(=O)Nc1ccc(C(=O)c2ccccc2)cc1`, -2.24%. To `CC(C)Cc1nc2oc3c(Cl)ncnc3c2c2c1CCCC2` belongs -2.28%; to `O=C(NCC1(N2CCCCC2)CCCCC1)c1cccc(S(=O)(=O)Nc2ccc(F)cc2)c1`, -8.67%; to `CO/N=C/NC(=O)C1=NOC(CNc2ncc(C(F)(F)F)cc2Cl)C1` (centres unmarked), -2.89%.

Regarding `c1coc(-c2nnc(SCc3nc4ccccc4[nH]3)o2)c1`, the “hERG current change (%, negative = inhibition) at 1uM” value is recorded as 2.6%. On to `Fc1cccc(-c2nn[nH]n2)c1`, for which the “hERG current change (%, negative = inhibition) at 1uM” value was found to be 6.51%. The result for `CN(C(=O)CS(=O)(=O)c1cn(CC(=O)N2CCCCC2)c2ccccc12)c1ccccc1` reads 11.9%; that for `COc1ccc(C(C)(C)C)cc1NC(=O)CCN1C(=O)C2CCCCC2C1=O` (centres unmarked), 25.2%.

Consider `CCc1ccc(C(=O)NNC(=O)CN2C(=O)NC3(CCCC3)C2=O)cc1`, for which the “hERG current change (%, negative = inhibition) at 1uM” value is given as 12.5%. To `Cc1ccc(NC(=O)N2CCCC(c3ccccc3)C2)cc1` (centres unmarked) belongs 10.7%; to `Cc1ccccc1NS(=O)(=O)c1ccc(C(=O)NCC(c2ccco2)N(C)C)cc1` (centres unmarked), 3.75%; to `C/C(=N\NC(=O)c1ccn(C)n1)c1ccc(NC(=O)C2CCC2)cc1`, 5.31%. For `COc1ccc2c(CCNC(=O)CN3C(=O)c4ccccc4C3=O)c[nH]c2c1`, the “hERG current change (%, negative = inhibition) at 1uM” value is on record as 10%. For `Cl.O[Si](CCCN1CCCCC1)(c1ccc(F)cc1)C1CCCCC1` (centres unmarked), the “hERG current change (%, negative = inhibition) at 1uM” value was -12.5%. Take `CCOC(=O)C1Sc2ccccc2NC1=O` (centres unmarked): the “hERG current change (%, negative = inhibition) at 1uM” value turned out to be 10.4%.

On to `O=C(NC1CCCc2ccccc21)C1CCN(S(=O)(=O)c2cccc3nsnc23)CC1` (centres unmarked), for which the “hERG current change (%, negative = inhibition) at 1uM” value turned out to be 3.86%.

For `CCOC(=O)N1CCN(C(=O)CSc2nnc(-c3ccccc3OC)o2)CC1`, the “hERG current change (%, negative = inhibition) at 1uM” value came out at 3.24%. With `O=C(CC1C(=O)NCCN1Cc1ccc(F)c(F)c1)NCCn1cccn1` (centres unmarked), the “hERG current change (%, negative = inhibition) at 1uM” value turned out to be 7.59%. As to `CNC(=O)c1ccc(NC(=O)CCc2c(C)noc2C)cc1`, the “hERG current change (%, negative = inhibition) at 1uM” value turned out to be 15.8%.

Take `Cc1ccc(NC2CCCN(C(=O)c3c(C)noc3C)C2)cc1C` (centres unmarked): the “hERG current change (%, negative = inhibition) at 1uM” value was -1.97%. The result for `Cc1nc2sccn2c(=O)c1S(=O)(=O)Nc1ccc(N2CCN(C(=O)C(C)C)CC2)cc1` reads 7.18%; that for `CN1CC=C2C(C#N)=C(N)C(C#N)(C#N)[C@H](c3cccs3)[C@H]2C1`, 8.7%.

Regarding `Cc1ccc2c(c1)C1(OCCCO1)C(=O)N2`, the “hERG current change (%, negative = inhibition) at 1uM” value is reported as 16.5%.

As to `CC(C)Oc1ccc(C(=O)Nc2nc3ccccc3[nH]2)cc1`, the “hERG current change (%, negative = inhibition) at 1uM” value was found to be 14.8%. Regarding `COc1ccc(N(C(=O)c2ccc(S(=O)(=O)N3CCCC3)cc2)C2C=CS(=O)(=O)C2)cc1` (centres unmarked), the “hERG current change (%, negative = inhibition) at 1uM” value is -4.54%. Take `CCOC(=O)c1ccc(NC(=O)c2nc[nH]c2C(=O)NCCCCCNC(=O)OC(C)(C)C)cc1`: the “hERG current change (%, negative = inhibition) at 1uM” value came to 11.5%. As to `CCOC(=O)c1sc2nc(SCC(=O)N(CC)CC)n(CCCN3CCCC3=O)c(=O)c2c1C`, the “hERG current change (%, negative = inhibition) at 1uM” value came out at 1.77%. As to `CN(C)S(=O)(=O)Oc1ccsc1C(=O)Nc1ccc(Cl)c(Cl)c1`, the “hERG current change (%, negative = inhibition) at 1uM” value amounted to 16.9%.

`CCN(CC)c1ccc(/C=N/NC(=O)CCC(=O)NCc2ccccc2)c(O)c1`: the “hERG current change (%, negative = inhibition) at 1uM” value is recorded as 20.6%.

Consider `Nc1c(-c2ccc(Cl)cc2)cnn1-c1cccc(C(F)(F)F)c1`, for which the “hERG current change (%, negative = inhibition) at 1uM” value was 12.8%.

Consider `O=C1c2ccccc2C(O)(Cc2ccccc2)N1CCCN1CCOCC1` (centres unmarked), for which the “hERG current change (%, negative = inhibition) at 1uM” value stood at 14.3%. To `COC(=O)Cc1c(C)nc2nc(-c3cccnc3)[nH]n2c1=O` belongs 16.5%; to `Cc1nc(NC(=O)CSc2nccn2C)sc1C(=O)N(C)C`, 10.5%; to `CCOC(=O)CN(c1ccccc1C)S(=O)(=O)c1ccc(Cl)cc1`, -3.59%.

In the case of `CCn1nc(C(=O)OCC(=O)NC(C)C)c2ccccc2c1=O`, the “hERG current change (%, negative = inhibition) at 1uM” value was determined as 9.96%. To `O=C(CSc1ccc(-c2ccco2)nn1)c1ccccc1` belongs 7.08%; to `O=C(NCCN1CCNC1=O)C1CCC(=O)N(CCc2ccccc2)C1` (centres unmarked), 6.81%; to `Cc1oc(-c2ccccc2F)nc1CS(=O)CC(=O)NCc1ccc(Cl)cc1` (centres unmarked), -0.439%. With `CCn1ccc(C(=O)Nc2ccccc2Cl)n1`, the “hERG current change (%, negative = inhibition) at 1uM” value is 7.26%.

`Cc1sc(NC(=O)CSc2nc(N)n(CC(=O)c3ccccc3)n2)c(C#N)c1C`: the “hERG current change (%, negative = inhibition) at 1uM” value is 7.69%.

Consider `COc1cccc(C(=O)OCn2nnc3ccccc3c2=O)c1OC`, for which the “hERG current change (%, negative = inhibition) at 1uM” value stood at 15.7%. With `CC(=O)c1ccc(N2CCN(C(=O)COc3ccccc3F)CC2)c(F)c1`, the “hERG current change (%, negative = inhibition) at 1uM” value was -11.1%. The result for `COc1cccc(CNC(=O)C2CCN(S(=O)(=O)c3ccc(-n4cnnn4)cc3)CC2)c1` reads -14%. To `Cc1nc(SCCC(C)C)c([N+](=O)[O-])[nH]1` belongs 12.9%; to `O=C(CNC(=O)c1nc[nH]c1C(=O)N1CCN(c2ccccc2)CC1)OCc1ccccc1`, -4.06%. The result for `O=C(O)c1cccc(CSc2nnc(-c3ccco3)o2)c1` reads 13.9%; that for `O=C(NCCN1CCOCC1)c1cnn2c(-c3ccccc3)cc(-c3ccccc3)nc12`, -11.5%; that for `COc1cccc(NC(=O)CSc2nnc(-c3ccoc3C)n2C)c1`, 13.1%.

As for `O=C1C=C(c2ccc3c(c2)OCO3)C[C@@H](c2ccc(F)cc2)C1`, the “hERG current change (%, negative = inhibition) at 1uM” value turned out to be 16.3%. For `COc1cc(CN2CCC(Oc3cc(C(=O)NC4CC4)ccc3OC)CC2)cc(OC)c1`, the “hERG current change (%, negative = inhibition) at 1uM” value is listed as -62%. The result for `Cc1noc(C)c1COC(=O)Cn1c(C)nc2ccccc21` reads 12.1%; that for `CCOc1ccccc1N(CC(=O)Nc1ccc(S(=O)(=O)N2CCCC2)cc1)S(C)(=O)=O`, -1.6%; that for `CC1CCC(NC(=O)c2ccc(CNc3c(NC4CCCCC4)c(=O)c3=O)cc2)CC1` (centres unmarked), 11.7%. The result for `O=C(NC(=O)c1ccccc1)Nc1ccc(Cl)cn1` reads 8.42%; that for `COc1ccnc(CN(C)C(=O)C2CCC(=O)N(Cc3cccc(C(F)(F)F)c3)C2)c1` (centres unmarked), 1.07%. To `Cl.NCCCCCc1nnc(SCc2ccc(Cl)cc2Cl)o1` belongs 1.56%; to `COc1cc(-c2noc(C)c2-c2ccc3[nH]ccc3c2)cc(OC)c1OC`, 17.7%; to `NC(=O)C1=C[C@@H](C2CCCCC2)C[C@@H](OCc2ccc(CO)cc2)O1`, 0.0716%. Take `O=C(/C=C/c1ccccc1)N(Cc1ccc(Cl)cc1)C1CCS(=O)(=O)C1` (centres unmarked): the “hERG current change (%, negative = inhibition) at 1uM” value is reported as 5.2%. As for `Cc1cccc(OCC(=O)Nc2ccccc2C(F)(F)F)c1`, the “hERG current change (%, negative = inhibition) at 1uM” value is 4.97%.

Regarding `Cc1cc(=O)c(C(=O)Nc2cccc(N3CCCC3=O)c2)nn1-c1ccccc1Cl`, the “hERG current change (%, negative = inhibition) at 1uM” value is reported as 3.17%. The result for `O=C(N/N=C/c1cccc2cccnc12)[C@H]1C[C@@H]1c1ccccc1` reads 11.7%. To `Cc1ccccc1Cn1cc(NC(=O)c2noc(C(C)C)c2[N+](=O)[O-])cn1` belongs 16.4%; to `COC(=O)c1ccc(NC(=O)c2ccc(N(C)S(C)(=O)=O)cc2)cc1`, 3.32%. The result for `Cn1cccc1C(=O)NC(=O)COC(=O)c1cc(S(=O)(=O)N2CCCCC2)ccc1Cl` reads 18%; that for `CC(C)CC(=O)Nc1cccc(NC(=O)c2ccccc2Cl)c1`, -8.98%.

Regarding `N#Cc1ccc(N2CCN(C(=O)c3cccc(F)c3)CC2)c(F)c1`, the “hERG current change (%, negative = inhibition) at 1uM” value was -45.1%. With `Cc1ccc(/C(O)=C2\C(=O)C(=O)N(CC(C)O)C2c2cccc(F)c2)cc1` (centres unmarked), the “hERG current change (%, negative = inhibition) at 1uM” value was 23.9%. As for `CCCCN(CCCC)Cc1cc2ccccc2c2c1COC2`, the “hERG current change (%, negative = inhibition) at 1uM” value was -15.4%. With `Cc1ccc(C(=O)Nc2nc(=O)[nH]s2)cc1`, the “hERG current change (%, negative = inhibition) at 1uM” value turned out to be 7.77%.

Source of the values: article PMC4336329 (PLoS ONE, 2015).
